The values that follow come from the domain aggregation screens of Martell et al. (2025).

The series is described as follows: soluble fraction after stress (log2 fold change); higher = more stays soluble; pooled small domains, quantitative proteomics. To be noted: stress: pH 4. An outline of the steps:
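After pH 4 stress, pooled custom libraries of small protein domains were quantified with high-throughput quantitative proteomics. Aggregation propensity is taken from the fold change in each domain's soluble amount following the acid stress. The scale is log2, where higher values mean more stayed soluble.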

As to “HMEVITIENEDAFTEGRAFAHSEGILVGISSGAALKAATILAERPENKGKTIVALLPDSGDRYLSTALFA”, the “soluble fraction (log2)” value was -1.11. For the sequence “HMGGKYKPLILWHLIEGTKRFSALQRLLPQATPRMLTMNLRELESDGLVHRKVYPEVPPKTEYSLSDLGK”, the “soluble fraction (log2)” value is -0.225.
